Laboratory results published in ChEMBL document CHEMBL5606460, “ASAP - DENV-2 NS2B-NS3 protease fluorescence single point” (2024).
About 110 (5.5%) of roughly 2,000 compounds showed an effect of 50% or more. The list shows a part of the results.

Biological target: Genome polyprotein (dengue virus type 2) (UniProt P29990)
[1] = Thailand/16681/1984, Concentration 25.0 uM, Number of replicates 1.0

What does the source list for `CCn1ccnc(N[C@@H](Cc2c[nH]c3ccccc23)C(=O)OC)c1=O`?
inhibition (Thailand/16681/1984, Concentration 49.5 uM, Number of replicates 2.0, Standard deviation 0.10351011005842083 %): 0.218%; inhibition (Thailand/16681/1984, Concentration 99.01 uM, Number of replicates 2.0, Standard deviation 1.0746625349668986 %): 2.15%; inhibition (Thailand/16681/1984, Concentration 198.0 uM, Number of replicates 2.0, Standard deviation 0.583666754093053 %): 4.84%

How did the inhibition [1] turn out when `Cc1cc(C)c(CNC(=O)C2CCN(c3ccc(C=O)cc3)CC2)c(=O)[nH]1` was run?
Its inhibition is 13.3%.

`O=Cc1ccc(N2CCC(C(=O)NCc3ccc([N+](=O)[O-])cc3)CC2)cc1` was tested. Which inhibition [1] did it give?
Its inhibition is 8.81%.

`Cc1nc([C@H]2CCCNC2)[nH]c1C(=O)N1CCO[C@H](c2ccccc2)C1` was tested. Which inhibition (Thailand/16681/1984, Concentration 49.5 uM, Number of replicates 2.0, Standard deviation 0.9846181533468901 %) did it give?
Its inhibition is -5.12%.

And the inhibition (Thailand/16681/1984, Concentration 99.01 uM, Number of replicates 2.0, Standard deviation 3.3586182103297118 %)?
The inhibition was -3.87%.

What about the inhibition (Thailand/16681/1984, Concentration 198.0 uM, Number of replicates 2.0, Standard deviation 1.7197146566295223 %) of the same compound?
Its inhibition is -2.98%.

For `N=C(N)NCCC[C@H](NC(=O)c1nccs1)C(=O)N[C@@H](CCCCN)C(=O)N[C@@H](C(N)=O)c1ccc(OCc2ccc(C(F)(F)F)cc2)cc1`, which inhibition (Thailand/16681/1984, Concentration 49.5 uM, Number of replicates 2.0, Standard deviation 0.01715005842126491 %) is on record?
The inhibition was 96.2%.

What about the inhibition (Thailand/16681/1984, Concentration 49.5 uM, Number of replicates 2.0, Standard deviation 0.019135343573522066 %) of the same compound?
Its inhibition is 96.1%.

What about the inhibition (Thailand/16681/1984, Concentration 49.5 uM, Number of replicates 2.0, Standard deviation 0.03570815875758177 %) of the same compound?
Its inhibition is 95.6%.

And the inhibition (Thailand/16681/1984, Concentration 49.5 uM, Number of replicates 2.0, Standard deviation 0.054562972907415325 %)?
The inhibition was 95.2%.

What about the inhibition (Thailand/16681/1984, Concentration 49.5 uM, Number of replicates 2.0, Standard deviation 0.06140896980473687 %) of the same compound?
The inhibition was 95.7%.

What about the inhibition (Thailand/16681/1984, Concentration 49.5 uM, Number of replicates 2.0, Standard deviation 0.10612104410339795 %) of the same compound?
The inhibition was 97.2%.

What about the inhibition (Thailand/16681/1984, Concentration 49.5 uM, Number of replicates 2.0, Standard deviation 0.10687631562871318 %) of the same compound?
The inhibition was 95.4%.

And the inhibition (Thailand/16681/1984, Concentration 49.5 uM, Number of replicates 2.0, Standard deviation 0.10916370939109642 %)?
Its inhibition is 95.9%.

And the inhibition (Thailand/16681/1984, Concentration 49.5 uM, Number of replicates 2.0, Standard deviation 0.11089004430610264 %)?
The inhibition was 91.3%.

What about the inhibition (Thailand/16681/1984, Concentration 49.5 uM, Number of replicates 2.0, Standard deviation 0.12066541576232535 %) of the same compound?
Its inhibition is 96.7%.

And the inhibition (Thailand/16681/1984, Concentration 49.5 uM, Number of replicates 2.0, Standard deviation 0.12893024416791762 %)?
Its inhibition is 95%.

And the inhibition (Thailand/16681/1984, Concentration 49.5 uM, Number of replicates 2.0, Standard deviation 0.18367124536344298 %)?
Its inhibition is 96.2%.

What about the inhibition (Thailand/16681/1984, Concentration 49.5 uM, Number of replicates 2.0, Standard deviation 0.22697527774705212 %) of the same compound?
Its inhibition is 95.7%.

And the inhibition (Thailand/16681/1984, Concentration 49.5 uM, Number of replicates 2.0, Standard deviation 0.262397512284336 %)?
The inhibition was 95.2%.

And the inhibition (Thailand/16681/1984, Concentration 49.5 uM, Number of replicates 2.0, Standard deviation 0.3581065989316027 %)?
Its inhibition is 96.5%.

And the inhibition (Thailand/16681/1984, Concentration 49.5 uM, Number of replicates 2.0, Standard deviation 0.6751965592419794 %)?
The inhibition was 94.5%.

And the inhibition (Thailand/16681/1984, Concentration 49.5 uM, Number of replicates 4.0, Standard deviation 0.3877656068031149 %)?
Its inhibition is 96.3%.

And the inhibition (Thailand/16681/1984, Concentration 49.8 uM, Number of replicates 2.0, Standard deviation 0.008615490185202914 %)?
Its inhibition is 98.3%.

And the inhibition (Thailand/16681/1984, Concentration 49.95 uM, Number of replicates 2.0, Standard deviation 0.5898131133050937 %)?
The inhibition was 90.4%.

What about the inhibition (Thailand/16681/1984, Concentration 50.0 uM, Number of replicates 2.0, Standard deviation 2.607110988642393 %) of the same compound?
Its inhibition is 82.5%.

And the inhibition (Thailand/16681/1984, Concentration 98.52 uM, Number of replicates 2.0, Standard deviation 0.0007930351015809821 %)?
Its inhibition is 99.7%.

And the inhibition (Thailand/16681/1984, Concentration 99.01 uM, Number of replicates 2.0, Standard deviation 0.014371738167426778 %)?
The inhibition was 98.3%.

And the inhibition (Thailand/16681/1984, Concentration 99.01 uM, Number of replicates 2.0, Standard deviation 0.015720437319775387 %)?
The inhibition was 97.7%.

And the inhibition (Thailand/16681/1984, Concentration 99.01 uM, Number of replicates 2.0, Standard deviation 0.019361925031116632 %)?
The inhibition was 97.6%.

And the inhibition (Thailand/16681/1984, Concentration 99.01 uM, Number of replicates 2.0, Standard deviation 0.03515249470681415 %)?
Its inhibition is 98%.

What about the inhibition (Thailand/16681/1984, Concentration 99.01 uM, Number of replicates 2.0, Standard deviation 0.051056355111308946 %) of the same compound?
Its inhibition is 98.5%.

And the inhibition (Thailand/16681/1984, Concentration 99.01 uM, Number of replicates 2.0, Standard deviation 0.05114267185705925 %)?
Its inhibition is 98.8%.

And the inhibition (Thailand/16681/1984, Concentration 99.01 uM, Number of replicates 2.0, Standard deviation 0.05214610402640662 %)?
The inhibition was 98.2%.

What about the inhibition (Thailand/16681/1984, Concentration 99.01 uM, Number of replicates 2.0, Standard deviation 0.05969881927955883 %) of the same compound?
Its inhibition is 97.8%.

What about the inhibition (Thailand/16681/1984, Concentration 99.01 uM, Number of replicates 2.0, Standard deviation 0.06259043026219424 %) of the same compound?
The inhibition was 97.6%.

What about the inhibition (Thailand/16681/1984, Concentration 99.01 uM, Number of replicates 2.0, Standard deviation 0.0932706385798204 %) of the same compound?
Its inhibition is 98.3%.

And the inhibition (Thailand/16681/1984, Concentration 99.01 uM, Number of replicates 2.0, Standard deviation 0.1268262734902538 %)?
The inhibition was 98.1%.

What about the inhibition (Thailand/16681/1984, Concentration 99.01 uM, Number of replicates 2.0, Standard deviation 0.1304084184388917 %) of the same compound?
The inhibition was 95.2%.

And the inhibition (Thailand/16681/1984, Concentration 99.01 uM, Number of replicates 2.0, Standard deviation 0.16720632611157116 %)?
The inhibition was 97.6%.

What about the inhibition (Thailand/16681/1984, Concentration 99.01 uM, Number of replicates 2.0, Standard deviation 0.19540492798887588 %) of the same compound?
The inhibition was 98.3%.

And the inhibition (Thailand/16681/1984, Concentration 99.01 uM, Number of replicates 2.0, Standard deviation 0.2057251739026474 %)?
Its inhibition is 97.9%.

What about the inhibition (Thailand/16681/1984, Concentration 99.01 uM, Number of replicates 2.0, Standard deviation 0.39058866931676656 %) of the same compound?
The inhibition was 97.1%.

And the inhibition (Thailand/16681/1984, Concentration 99.01 uM, Number of replicates 4.0, Standard deviation 0.160745991426317 %)?
Its inhibition is 98.2%.

What about the inhibition (Thailand/16681/1984, Concentration 99.5 uM, Number of replicates 2.0, Standard deviation 0.012726325201561474 %) of the same compound?
Its inhibition is 99.3%.

And the inhibition (Thailand/16681/1984, Concentration 99.5 uM, Number of replicates 2.0, Standard deviation 0.04880672492519146 %)?
Its inhibition is 99.4%.

What about the inhibition (Thailand/16681/1984, Concentration 99.9 uM, Number of replicates 2.0, Standard deviation 0.33233565552852545 %) of the same compound?
The inhibition was 95.1%.

And the inhibition (Thailand/16681/1984, Concentration 100.0 uM, Number of replicates 2.0, Standard deviation 1.0120962127020525 %)?
Its inhibition is 91.1%.

What about the inhibition (Thailand/16681/1984, Concentration 198.0 uM, Number of replicates 2.0, Standard deviation 0.008588516202155942 %) of the same compound?
Its inhibition is 97.6%.

What about the inhibition (Thailand/16681/1984, Concentration 198.0 uM, Number of replicates 2.0, Standard deviation 0.009273655371549035 %) of the same compound?
Its inhibition is 99.3%.

What about the inhibition (Thailand/16681/1984, Concentration 198.0 uM, Number of replicates 2.0, Standard deviation 0.015984782353635714 %) of the same compound?
Its inhibition is 99.5%.

And the inhibition (Thailand/16681/1984, Concentration 198.0 uM, Number of replicates 2.0, Standard deviation 0.02043009475977673 %)?
The inhibition was 99%.

What about the inhibition (Thailand/16681/1984, Concentration 198.0 uM, Number of replicates 2.0, Standard deviation 0.03091218457183012 %) of the same compound?
Its inhibition is 99%.

And the inhibition (Thailand/16681/1984, Concentration 198.0 uM, Number of replicates 2.0, Standard deviation 0.034661568215359255 %)?
Its inhibition is 98.9%.

What about the inhibition (Thailand/16681/1984, Concentration 198.0 uM, Number of replicates 2.0, Standard deviation 0.04180427892619749 %) of the same compound?
The inhibition was 98.9%.

And the inhibition (Thailand/16681/1984, Concentration 198.0 uM, Number of replicates 2.0, Standard deviation 0.05357033033128675 %)?
Its inhibition is 99.3%.

And the inhibition (Thailand/16681/1984, Concentration 198.0 uM, Number of replicates 2.0, Standard deviation 0.055172584924276895 %)?
Its inhibition is 99.5%.

And the inhibition (Thailand/16681/1984, Concentration 198.0 uM, Number of replicates 2.0, Standard deviation 0.06522309100757873 %)?
Its inhibition is 99.1%.

And the inhibition (Thailand/16681/1984, Concentration 198.0 uM, Number of replicates 2.0, Standard deviation 0.07510635839598934 %)?
Its inhibition is 99.3%.

What about the inhibition (Thailand/16681/1984, Concentration 198.0 uM, Number of replicates 2.0, Standard deviation 0.08009654525967919 %) of the same compound?
Its inhibition is 99.1%.

And the inhibition (Thailand/16681/1984, Concentration 198.0 uM, Number of replicates 2.0, Standard deviation 0.10986503295031769 %)?
The inhibition was 99.2%.

And the inhibition (Thailand/16681/1984, Concentration 198.0 uM, Number of replicates 2.0, Standard deviation 0.15163694309685882 %)?
Its inhibition is 99%.

What about the inhibition (Thailand/16681/1984, Concentration 198.0 uM, Number of replicates 2.0, Standard deviation 0.1571827940113163 %) of the same compound?
Its inhibition is 98.9%.

And the inhibition (Thailand/16681/1984, Concentration 198.0 uM, Number of replicates 2.0, Standard deviation 0.24491837126989802 %)?
Its inhibition is 98.3%.

And the inhibition (Thailand/16681/1984, Concentration 198.0 uM, Number of replicates 4.0, Standard deviation 0.0821711955101111 %)?
Its inhibition is 99.2%.

What about the inhibition (Thailand/16681/1984, Concentration 295.6 uM, Number of replicates 2.0, Standard deviation 0.015100035709695026 %) of the same compound?
Its inhibition is 100%.

What about the inhibition (Thailand/16681/1984, Concentration 295.6 uM, Number of replicates 2.0, Standard deviation 0.020829309708871917 %) of the same compound?
The inhibition was 99.9%.
